Measurements as given in PubChem BioAssay AID488969 (Vanderbilt High Throughput Screening Facility, 2010).
Over roughly 110,000 compounds, “z-score” has its median near -0.1; the highest 2% begin near 2. Some of the results follow. The source made the active and inactive calls.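 How the source made its calls: active means z-score in the third read window above 3 or below -3; inactive means the rest.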

Target: Metabotropic glutamate receptor 8 (Rattus norvegicus) (UniProt P70579)
Test: mGluR8 Gi/Go-coupled signaling modulation – cell-based, rat, thallium flux, HTS, primary screen (AID 488969)
Settings: HEK293 rat mGluR8, GIRK (G protein-gated inwardly rectifying potassium channel) thallium flux, FluoZin2; at 10 µM; stronger effect = higher value; submaximal glutamate (EC20) added with thallium

Chain of UniProt P70579 (P70579 whole entry, looked up): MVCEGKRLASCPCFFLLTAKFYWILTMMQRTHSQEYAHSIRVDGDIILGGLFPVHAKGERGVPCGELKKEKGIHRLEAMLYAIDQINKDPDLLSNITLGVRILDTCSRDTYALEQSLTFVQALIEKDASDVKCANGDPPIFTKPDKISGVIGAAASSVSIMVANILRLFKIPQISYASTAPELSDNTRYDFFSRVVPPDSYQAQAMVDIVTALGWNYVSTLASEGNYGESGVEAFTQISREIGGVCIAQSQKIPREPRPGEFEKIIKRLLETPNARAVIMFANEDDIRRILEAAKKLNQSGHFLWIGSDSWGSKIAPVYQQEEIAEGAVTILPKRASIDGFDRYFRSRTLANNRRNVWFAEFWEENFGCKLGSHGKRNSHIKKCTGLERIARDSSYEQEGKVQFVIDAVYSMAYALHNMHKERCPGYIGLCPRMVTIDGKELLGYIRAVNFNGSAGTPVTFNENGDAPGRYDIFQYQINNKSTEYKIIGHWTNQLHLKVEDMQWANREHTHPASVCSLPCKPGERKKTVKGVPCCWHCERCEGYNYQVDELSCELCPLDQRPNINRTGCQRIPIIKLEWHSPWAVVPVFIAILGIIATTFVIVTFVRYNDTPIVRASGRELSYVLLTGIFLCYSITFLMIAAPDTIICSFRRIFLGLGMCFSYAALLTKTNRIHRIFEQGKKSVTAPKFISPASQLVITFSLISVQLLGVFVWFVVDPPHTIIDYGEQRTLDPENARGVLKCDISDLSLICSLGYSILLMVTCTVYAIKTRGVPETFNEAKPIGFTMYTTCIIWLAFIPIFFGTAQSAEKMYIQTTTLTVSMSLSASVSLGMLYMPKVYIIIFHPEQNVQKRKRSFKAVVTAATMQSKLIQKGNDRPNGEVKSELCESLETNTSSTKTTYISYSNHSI

| Structure (SMILES) | z-score |
| --- | --- |
| O=C(Oc1cc2oc(=O)cc(-c3ccccc3)c2cc1Cl)C1CCCCC1 | -0.221 |
| CCN1C(=O)CSC1=NC1C2CC3CC(C2)CC1C3 (stereo unspecified) | 0.387 |
| O=C1CSC(=S)N1CC1CCCO1 (stereo unspecified) | -0.08 |
| COn1c(-c2ccccc2)nc2ccc(Cl)cc21 | -0.0829 |
| COc1ccc(C2=NOC3(CC(=O)N(c4ccc5ccccc5c4)C3=O)C2)c(OC)c1 (stereo unspecified) | 0.0522 |
| COc1ccc(Oc2ccccc2C=O)cc1 | -0.297 |
| CC(/C=C/c1ccc(O)cc1)=N/O | -0.0742 |
| COc1ccc(-c2cc3c(=O)n(CC(=O)NC4CCN(Cc5ccccc5)CC4)ncn3n2)cc1 | -0.042 |
| CCOc1ccc2oc(C(=O)Nc3ccc(N4CCOCC4)cc3)c(C)c2c1 | -0.537 |
| O=C(NCCc1ccccc1)C(c1cccs1)N(C(=O)c1csnn1)C1CC1 (stereo unspecified) | -0.329 |
| COC(=O)/C(=C/Nc1ccccc1)[N+](=O)[O-] | -0.132 |
| COC(=O)c1c(C)oc2c1cc(NS(=O)(=O)c1cccs1)c1ccccc12 | -0.0313 |
| Cc1cccc(C)c1Nc1nnc(SCC(=O)NCc2ccco2)s1 | -1.08 |
| O=C1[C@@H]2[C@@H]3C[C@@H]([C@H]4ON=C(c5ccc(Cl)cc5)[C@@H]34)[C@@H]2C(=O)N1C1CCCCC1 | 0.352 |
| CCS(=O)(=O)c1ccc(O)c(NC(=O)COc2ccc(C)cc2)c1 | -0.136 |
| Cc1cc(C)cc(Nc2cnn(C34CC5CC(CC(CC(=O)O)(C5)C3)C4)c(=O)c2Cl)c1 | -0.118 |
| Cc1ccc(CSc2nnc(-c3ccncc3)n2CC2CCCO2)cc1 (stereo unspecified) | 0.0783 |
| CCc1ccc(C2CC(=O)NC(SCC(=O)OC(C)C)=C2C#N)cc1 (stereo unspecified) | -0.0811 |
| Cc1sc2nc(SCc3nc(-c4cccs4)no3)n(-c3ccccc3)c(=O)c2c1C | 0.0145 |
| CN1CCN(C(c2cccc(Cl)c2)c2ccccc2Cl)CC1 (stereo unspecified) | 0.826 |
| Cc1ccccc1CSc1nc(-c2ccccc2)cc(=O)[nH]1 | -0.423 |
| COC(=O)c1ccc2c(=O)n(CCCN3CCOCC3)c(=S)[nH]c2c1 | 1 |

| Structure (SMILES) | z-score |
| --- | --- |
| CCC(=O)/C=C1/Sc2ccccc2N1CC | 0.119 |
| CC1CCN(S(=O)(=O)c2cccc(C(=O)Nc3ccccn3)c2)CC1 | 0.081 |
| COc1ccc(/C=N/NC(=O)c2cc(Br)ccc2O)cc1Cn1cc(Cl)cn1 | 0.377 |
| Cc1nc(Nc2nc(=O)c3ccccc3n2C)nc2c(C)cccc12 | 0.623 |
| COc1ccc(C(=O)NC(C)c2nc3ccccc3[nH]2)cc1OC (stereo unspecified) | -0.126 |
| Cc1cc(NS(=O)(=O)c2ccccc2)c([N+](=O)[O-])cc1C | 1.41 |
| O=C(CN1C(=O)c2ccccc2C1=O)Nc1cccc([N+](=O)[O-])c1 | -1.4 |
| COc1cc2c(cc1NC(=O)c1ccc3c(c1)OCO3)oc1ccccc12 | -0.114 |
| CC(=O)Nc1cc(C(C)C)c(O)c(C(C)C)c1 | -0.322 |
| COC(=O)c1c(NC(=O)COc2ncnc3ccccc23)sc(C)c1C | -0.279 |
| O=C(CN(Cc1ccc2c(c1)OCO2)C(=O)CNS(=O)(=O)c1ccccc1)NCC1CCCO1 (stereo unspecified) | 0.846 |
| O=C1C2CCCN2C(c2ccc(F)cc2)N1c1cccc(Cl)c1 (stereo unspecified) | -0.426 |
| O=C(Nc1ccc2c(c1)OCO2)c1ccc(N2CCCC2)c([N+](=O)[O-])c1 | -0.563 |
| Cc1ccc(NC(=O)CS(=O)Cc2nc(-c3ccc(C)cc3)oc2C)cc1 (stereo unspecified) | -0.188 |
| N/C(=N\OC(=O)c1ccccc1[N+](=O)[O-])c1cccnc1 | 0.0652 |
| COc1ccc(OC)c(C2C(C(=O)Nc3ccccc3OC)=C(C)Nc3nc(CCCO)nn32)c1 (stereo unspecified) | -0.332 |
| Cc1sc(NC(=O)C2CCCCC2C(=O)O)c(C(N)=O)c1-c1ccc(C(C)(C)C)cc1 (stereo unspecified) | -0.35 |
| CCCOC(=O)Nc1ccc(N2CCCCC2)cc1 | -0.659 |
| O=C(COc1ccccc1)Nc1ccc([N+](=O)[O-])cc1 | 0.423 |
| O=C(CCc1nc2cccnc2n1Cc1ccccc1)N1CCOCC1 | 0.0984 |
| COc1cc([N+](=O)[O-])cc(CN2CCCCC2)c1O | 0.162 |
| CC(CCc1ccccc1)NC(=O)C(=O)NCCO (stereo unspecified) | -0.208 |

| Structure (SMILES) | z-score |
| --- | --- |
| CCCCOc1ccc(-c2nnn(CC(=O)c3c[nH]c4ccccc34)n2)cc1 | 0.187 |
| COc1ccc(CCNC(=O)NC2CCCCC2)cc1OC | -0.0796 |
| COc1cccc(-c2nc(-c3ccc4c(c3)-c3ccccc3S4(=O)=O)c(-c3ccccc3)[nH]2)c1OC | 0.192 |
| O=C(N/N=C/c1ccc(OCCCF)cc1)c1cc(OCC(F)(F)F)ccc1OCC(F)(F)F | -0.181 |
| CCOC(=O)c1c(C)[nH]c(C)c1C(=O)COC(=O)[C@@H]1CCCN1S(=O)(=O)c1ccc(Cl)cc1 | -0.306 |
| CCOC(=O)N1CCN(C(=O)CCS(=O)(=O)c2ccc(Br)s2)CC1 | 0.042 |
| CCN(CC)C(=O)CN1CCC(n2c(C)nc3cc(C(F)(F)F)ccc32)CC1 | -0.362 |
| CC(=O)Nc1ccc(-c2csc(NC(=O)CCCc3cccs3)n2)cc1 | -0.117 |
| S=C(NCC1CCCO1)Nc1ccc(Cl)cc1 (stereo unspecified) | 0.0149 |
| COc1ccc(NC(=O)C(CCS(C)(=O)=O)N2C(=O)c3ccccc3C2=O)cc1 (stereo unspecified) | -0.208 |
| CN1C(=O)[C@@H]2[C@@H]3C[C@@H]([C@H]4ON=C(c5ccc(Cl)cc5)[C@@H]34)[C@@H]2C1=O | 0.518 |
| COc1cccc(C2OC(=O)c3ccccc3N2C(C)=O)c1OC(C)=O (stereo unspecified) | 0.116 |
| CC1CC(C)CN(C(=O)CSc2nnc(-c3ccc(Cl)cc3)o2)C1 (stereo unspecified) | -0.176 |
| Cc1cccc(NC2=NC(=S)N(c3ccc(C(=O)O)cc3)C23CCCCC3)c1 | -0.194 |
| CCC(C)C1NC(=S)N(C2CCCCC2)C1=O (stereo unspecified) | 0.382 |
| COC(=O)c1cc2ccsc2n1CC(=O)Nc1cc(Cl)ccc1OC | 0.428 |
| CN(CC(=O)Nc1sccc1C#N)C1CCCCC1 | 0.0221 |
| CC1CCCN(C(=O)C2CCN(S(=O)(=O)c3cccc4cccnc34)CC2)C1 (stereo unspecified) | -0.63 |
| CCOC(=O)c1c(C)nc2sc3c(=O)n(-c4ccc(C(C)=O)cc4)nnc3c2c1-c1ccc(Cl)cc1 | -0.128 |
| CCCCOC(=O)/C=C/c1ccc(OC(=O)OC)c(OC(=O)OC)c1 | -0.231 |
| Cc1cc(C(=O)C(=O)N(C)C)c(C)n1-c1ccc([N+](=O)[O-])cc1 | 0.277 |
| CCOC(=O)N1CCN(c2c(N3CCOCC3)c(=O)c2=O)CC1 | -1.39 |

| Structure (SMILES) | z-score |
| --- | --- |
| COCCCNC(=O)c1ccccc1SC | 0.292 |
| Cc1cc([N+](=O)[O-])nn1CC(=O)NCc1cccs1 | -0.13 |
| O=S(=O)(c1ccc(NC(=S)NCc2ccco2)cc1)N1CCCC1 | -0.365 |
| C/C(=N/N=C1/NC(=O)CC(C(=O)Nc2ccccc2)S1)c1cccs1 (stereo unspecified) | -0.222 |
| COc1cc(/C=C(/C#N)c2nc3ccccc3c(=O)[nH]2)ccc1O | -0.29 |
| CCOCCCn1c(=N)c(C(=O)Nc2cc(C)on2)cc2c(=O)n3ccccc3nc21 | -0.167 |
| COCCn1c(COc2cccc(OC)c2)nnc1SCC(=O)N1CCOCC1 | 1.06 |
| C=CCOc1c(CNc2ccc(S(N)(=O)=O)cc2)cccc1OC | -0.459 |
| O=C(CSc1nc2ccccc2o1)Nc1nc(-c2ccccc2)cs1 | -0.203 |
| COc1ccc(S(=O)(=O)Nc2ccccc2SC)cc1C | 0.148 |
| Cc1ccccc1CS(=O)(=O)CCC(=O)NCCCN1CCN(c2ccccc2F)CC1 | -0.421 |
| S=C(Nc1ccc(Cl)cc1)c1nc2ccccc2s1 | 0.236 |
| COc1ccc(/C=C2/SC(=S)N(CCC(=O)O)C2=O)cc1 | -0.0713 |
| O=C(N/N=C/c1c(O)ccc2ccccc12)c1[nH]ncc1Br | 0.0199 |
| O=C1CC(c2ccco2)CC(O)=C1C=NCC1NCCc2ccccc21 (stereo unspecified) | -0.333 |
| Cc1nn(Cc2c(F)c(F)c(F)c(F)c2F)c(C)c1NC(=O)c1nn(C)cc1[N+](=O)[O-] | -0.0787 |
| Cc1ccc2nc(C)c(C(=O)N/N=C/c3ccco3)cc2c1 | -0.189 |
| O=C(CCC(=O)OCCCC(F)(F)C(F)(F)F)NC1CCCCC1 | -0.0277 |
| C=CCN(CC=C)CCOc1cccc2ccccc12 | -0.0629 |
| CCCCOC(=O)c1ccc(NC(=S)NC(=O)c2c(Br)c(C)nn2C)cc1 | active: 4.24 |
| Cc1nn(-c2ccccc2)c(N2CCCC2)c1/C=N/Nc1ccc(S(N)(=O)=O)cc1[N+](=O)[O-] | -0.414 |
| Cc1ccc(C(=O)Oc2coc(CSc3nnc(NC(=O)c4cccs4)s3)cc2=O)cc1 | -0.193 |

| Structure (SMILES) | z-score |
| --- | --- |
| CCOC(=O)N1CCN(C(=O)CCCn2nc(C)c3sc4ccccc4c3c2=O)CC1 | -0.492 |
| O=C(c1ccc(S(=O)(=O)N2CCOCC2)cc1)N1CCc2ccccc2C1 | 0.0377 |
| COc1ccc(C(=O)NCCn2cc(SCC(=O)N3CCOCC3)c3ccccc32)cc1 | 0.0395 |
| Cc1ccc(S(=O)(=O)N[C@H](C(=O)N2CCC(C(=O)N3CCC[C@H]3C(=O)O)CC2)C(C)C)cc1 | 0.715 |
| Cc1cc(NC(=O)CSc2nnc(-c3c[nH]c4ccccc34)n2-c2ccc(Cl)cc2)no1 | -0.301 |
| CCOc1ccc(S(=O)(=O)N(C)CCO)cc1-c1nc2c(C(C)(C)C)nn(C)c2c(=O)[nH]1 | -1.09 |
| O=C(Cn1cc(C(F)(F)F)ccc1=O)N/N=C/c1cccc(Cl)c1Cl | -0.181 |
| Cn1c(=O)c2c(nc(CN3CCN(C(=O)c4ccco4)CC3)n2Cc2ccccc2F)n(C)c1=O | -0.521 |
| COc1ccc(NC2=Nc3cccc4cccc2c34)cc1OC | active: 4.9 |
| CC(=O)Nc1nc(C)c(Oc2ccccc2)c(=O)[nH]1 | 0.0607 |
| O=C(CSc1nc2scc(-c3ccco3)c2c(=O)n1-c1ccccc1)N1CCOCC1 | 0.42 |
| Nc1nc(N2CCN(C/C=C/c3ccccc3)CC2)nc2ccccc12 | 0.356 |
| CCCCCOC(=O)CSc1n[nH]c(=O)[nH]c1=O | -0.193 |
| Cc1ccc(Sc2c(C)nn(C(=O)C3CC3)c2C)cc1 | -0.366 |
| CCCCOc1ccc(S(=O)(=O)NCc2csc(C)n2)cc1 | -1.17 |
| O=C(NNC(=O)C1CCCO1)c1ccc(F)cc1 (stereo unspecified) | -0.154 |
| Cc1ccc(C)c(Nc2ncnc3nc[nH]c23)c1 | -0.224 |
| COc1cc2c(cc1OC)C(C(=O)NCc1ccco1)C1c3ccccc3CCN1C2=O (stereo unspecified) | 0.0658 |
